Results: ChEMBL document CHEMBL4888484, “Replenishing the malaria drug discovery pipeline: Screening and hit evaluation of the MMV Hit Generation Library 1 (HGL1) against asexual blood stage Plasmodium falciparum ,using a nano luciferase reporter read-out” (2022)
Hit rate of the full screen: of about 150,000 compounds, about 540 (0.36%) showed an effect of 50% or more. This is one part of the list.

tested on: Plasmodium falciparum; assay: Primary screen in NF54 nanoGlo assay, in single point, at 2uM, 72h; a lower Z score goes with more inhibition; assay type: functional, Erythrocyte; conditions: timepoint 72 hour

Row | SMILES | % Inhibition [%] | Z score
1 | Cc1ccc(Cl)c(S(=O)(=O)NCCC(N)=O)c1 | 11 | -1.04
2 | CCC(C)N1C(=O)C(CC(C)C)NC12CCN(S(=O)(=O)c1ccc(C)cc1)CC2 (stereo not drawn) | -7 | 1.31
3 | Fc1cc(Cl)cnc1N1CCC2(CCOCC2)C1 | 34 | -1.13
4 | CN(C)c1ccc(N2CCC(Nc3ccc(F)cc3F)CC2)cc1 | -12 | 1.98
5 | Cc1ncoc1C(=O)N[C@H](c1cccnc1)C(F)(F)F | -4 | 0.55
6 | N[C@H]1CN(C(=O)C2CCCCCC2)C[C@@H]1C1CC1 | 14 | -2.58
7 | CN(C)c1cccc(C(=O)NC2CCS(=O)(=O)CC2)c1 | -10 | 1.36
8 | CO[C@H]1CCOC[C@@H]1NC(=O)c1cc(-c2c(C)nn(C)c2C)nn1C | -4 | 0.79
9 | O=C(O)C1C2C=CC(C2)C1C(=O)N1CCN(C(c2ccccc2)c2ccccc2)CC1 (stereo not drawn) | -7 | 1.19
10 | C#CC[C@H](OC(=O)c1cccn1C)C1CC1 | 36 | -5.54
11 | CC(C)(O)[C@H]1CCN(Cc2ccc(Cl)o2)C1 | -10 | 1.38
12 | Cc1noc(C)c1CCC(=O)Nc1nc(CC(C)C)n[nH]1 | -13 | 1.57
13 | CC[C@@H](C(=O)Nc1cccc(Cl)c1C)n1c(=O)c(-c2ccccc2NC(C)=O)nc2ccccc21 | -17 | 3.19
14 | COc1cc(NCC2(CO)CCC2)nc(N)n1 | 0 | -0.01
15 | CC(C)COC[C@H](NC(=O)CC1(C(=O)O)Cc2ccccc2C1)c1ccco1 | 4 | -0.49
16 | CC(C)C[C@@]1(C)CC(=O)N(Cc2ncc(C(C)C)o2)C1=O | -1 | 0.22
17 | O=C(NCCc1cnn(-c2ccccc2)c1)[C@H]1C[C@H](F)CN1 | -2 | 0.19
18 | Cc1cccc(Nc2nnc(CC(=O)Nc3ccc(OC(F)(F)F)cc3)s2)c1 | -4 | 0.56
19 | CC(C)CCc1nnc(NCc2ccco2)o1 | -14 | 1.63
20 | CCn1ccc2cc(S(=O)(=O)N3CCC[C@H](C(=O)NCCCN(C)Cc4ccccc4)C3)ccc21 | -20 | 3.13
21 | Cc1ccc(-c2noc(CCCC(=O)N3CCCC[C@H]3c3noc(COCC4CC4)n3)n2)cc1 | -3 | 0.44
22 | CCN1CCNC(=O)[C@@H]1CC(=O)N(Cc1ccco1)C(C)(C)CO | 7 | -0.99
23 | COCC1CN(C(=O)CN2Cc3c(cnn3-c3ccccc3)C2=O)C1 | 16 | -2.03
24 | O[C@H]1CN(c2nc(-c3ccccc3)cs2)CC[C@@H]1N1CCOCC1 | -11 | 2.19
25 | CC[C@@H](C(=O)N1CC(N2CCc3sccc3C2)C1)c1ccccc1 | -8 | 1.47
26 | CCn1nc(C)c(CNc2nnc([C@@H]3Cc4ccccc4O3)o2)c1C | -12 | 2.25
27 | Cc1nnc([C@H](C)OC(=O)c2cccc(-n3ccnn3)c2)o1 | -4 | 0.34

Row | SMILES | % Inhibition [%] | Z score
28 | CN(Cc1cc[nH]n1)C(=O)c1ccc(CN2CCc3ccccc3C2)cc1 | -20 | 2.16
29 | Cc1nc2ccc3c(c2s1)CCCC3 | -1 | 0.27
30 | C[C@H](C(=O)Nc1nc2c(ccc3ccccc32)s1)C1CCOCC1 | 36 | -4.6
31 | CC[C@H](C)C(=O)NCCC(=O)Nc1cc(Br)ccc1C | -9 | 1.4
32 | CCC[C@H]1CN(c2nc3cc(C(=O)OC)ccc3n2C)C[C@@H]1NS(C)(=O)=O | 16 | -2.05
33 | NC1(c2noc([C@@H]3CCCO3)n2)CCCCCC1 | 34 | -1.29
34 | O=C(Oc1ccc(N(C(=O)c2ccccc2)S(=O)(=O)c2ccccc2)c2ccccc12)c1ccccc1 | -3 | 0.35
35 | CCCN1CCN(CCCNC(=O)[C@H]2CCCN(S(=O)(=O)c3ccc4c(ccn4C)c3)C2)CC1 | -11 | 2.07
36 | O=S(=O)(Nc1nc2ccccc2nc1Nc1ccc2cn[nH]c2c1)c1ccc2ccccc2c1 | -14 | 1.85
37 | CCc1cnc(C(C)NC2CCCc3occc32)s1 (stereo not drawn) | 3 | -0.54
38 | O=C(CC1(O)CCCCC1)NCCC1=CCOCC1 | -10 | 1.14
39 | O=C1CN(S(=O)(=O)c2cccc3nsnc23)CCCN1 | -8 | 1.57
40 | CCCc1nc(C)cc(N2CCC[C@]3(CC2)CN(C)C(=O)O3)n1 | -15 | 2.07
41 | CCOc1cc(C(=O)N2CCC3CCCCC32)ccn1 (stereo not drawn) | -12 | 1.57
42 | COc1ccc(-n2nc(C)c3c(O)c4c(nc32)CCCC4)cc1 | -3 | 0.33
43 | Cc1cccc(S(=O)(=O)N2CC(Cn3ccnn3)C2)c1 | 2 | -0.44
44 | Cc1ccccc1NC(=O)Cn1c(=O)cnc2cc(C(=O)NC3CCCC3)ccc21 | -15 | 1.7
45 | O=C(CNC(=O)NCCc1cccc(F)c1F)NC1CC1 | 29 | -3.22
46 | COCCC1(CNC(=O)NCc2cc(C)no2)CCCC1 | -6 | 0.95
47 | Cc1ccccc1C(=O)Nc1cnc(-n2ccnc2C)nc1 | -6 | 0.98
48 | C[C@H]1COC2(CCN(c3ncnc4c3oc3ccccc34)CC2)O1 | 1 | -0.19
49 | Cc1ccc(-c2ccccc2CN2C[C@H]3CC[C@@H](C2)N(C)C3=O)o1 | -6 | 1.03
50 | CCC(=O)Nc1cc2c(cc1OC)[C@H](c1ncnn1CC)CC(=O)N2 | -11 | 2.1
51 | CCC(CC)C(=O)c1c[nH]c(C(=O)NC2CCCCCC2)c1 | 28 | -3.57
52 | CCn1cc(NC(=O)Nc2nccn(C)c2=O)cn1 | -12 | 2.19
53 | CC(C)=CCN1C[C@@H]2CC[C@H]1CN(C(=O)c1ccc3[nH]c(CO)nc3c1)C2 | -3 | 0.32
54 | CNc1nnc(COCc2ccccc2)o1 | -1 | 0.17
